# Data reported in PMC4336329 (PLoS ONE, 2015).
# In all, about 310,000 compounds went through this assay and about 2,200 (0.71%) showed an effect of 50% or more. Effects have a minus sign here. Some of the results follow.
# Target: human ether-à-go-go-related gene (hERG) potassium channel (human, UniProt Q12809)
# Assay: primary screen, population patch clamp on CHO cells stably expressing hERG
# Chain of human ether-à-go-go-related gene (hERG) potassium channel (Q12809 whole entry, looked up): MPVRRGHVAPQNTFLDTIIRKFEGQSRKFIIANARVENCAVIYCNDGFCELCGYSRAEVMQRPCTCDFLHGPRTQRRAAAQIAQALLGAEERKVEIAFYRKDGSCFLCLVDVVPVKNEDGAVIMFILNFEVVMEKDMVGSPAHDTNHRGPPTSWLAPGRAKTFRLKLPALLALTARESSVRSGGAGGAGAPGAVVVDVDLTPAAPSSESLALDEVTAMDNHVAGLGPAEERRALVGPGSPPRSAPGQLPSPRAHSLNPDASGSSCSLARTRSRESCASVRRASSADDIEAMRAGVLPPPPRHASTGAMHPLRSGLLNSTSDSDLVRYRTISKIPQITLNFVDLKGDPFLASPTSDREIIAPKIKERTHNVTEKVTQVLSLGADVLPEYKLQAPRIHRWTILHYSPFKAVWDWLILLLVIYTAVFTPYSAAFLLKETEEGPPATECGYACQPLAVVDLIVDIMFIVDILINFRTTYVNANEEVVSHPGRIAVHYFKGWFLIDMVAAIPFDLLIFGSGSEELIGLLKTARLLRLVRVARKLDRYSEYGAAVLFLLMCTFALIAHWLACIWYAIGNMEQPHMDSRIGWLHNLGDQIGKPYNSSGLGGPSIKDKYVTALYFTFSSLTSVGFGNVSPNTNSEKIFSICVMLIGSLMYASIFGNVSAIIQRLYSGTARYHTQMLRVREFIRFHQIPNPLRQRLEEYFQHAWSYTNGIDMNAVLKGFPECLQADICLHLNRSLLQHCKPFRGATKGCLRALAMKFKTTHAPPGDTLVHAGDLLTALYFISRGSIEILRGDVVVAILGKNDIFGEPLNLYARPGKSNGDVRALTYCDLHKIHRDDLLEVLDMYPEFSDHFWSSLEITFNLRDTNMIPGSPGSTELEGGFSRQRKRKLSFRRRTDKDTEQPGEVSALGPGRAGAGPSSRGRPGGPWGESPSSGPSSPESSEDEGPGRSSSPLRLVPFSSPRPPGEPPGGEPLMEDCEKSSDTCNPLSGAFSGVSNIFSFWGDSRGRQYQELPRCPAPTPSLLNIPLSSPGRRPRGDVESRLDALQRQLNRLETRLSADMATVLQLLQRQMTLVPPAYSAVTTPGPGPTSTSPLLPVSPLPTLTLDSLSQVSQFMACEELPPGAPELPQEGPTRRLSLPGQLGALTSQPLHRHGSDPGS
row,SMILES,"hERG current change (%, negative = inhibition) at 1uM"
1,COC(=O)C1=C(C)NC(=O)C1(NC(=O)c1ccncc1)C(F)(F)F (stereo not shown),0.652%
2,COc1ccc(N2CCN(C(=O)c3ccc(NS(=O)(=O)c4ccccc4)cc3)CC2)cc1,-7.23%
3,Cc1ccc(CCNC(=O)C2CCN(C(=O)N(C)C)CC2)cc1,13%
4,CCOC(=O)N1CCN(C(=O)c2ccc(N(C)S(=O)(=O)c3ccc(C)cc3)cc2)CC1,0.198%
5,COc1cc(C2CC(=O)c3cnc(NC(=O)COc4ccccc4)nc3C2)cc(OC)c1OC (stereo not shown),7.43%
6,Cc1ccc2nc(SCC(=O)Nc3ccc4c(c3)OCCO4)nc(=O)n2c1,5.61%
7,CN1CCCN(C(=O)C2CCC(C(=O)N3CCCN(C)CC3)CC2)CC1.Cl (stereo not shown),5.69%
8,CC(=O)Nc1ccc(S(=O)(=O)Nc2nccc(/C=C/c3ccccc3F)n2)cc1,10.8%
9,N#CCCN(C(=O)CSc1ccc2c(c1)OCCO2)c1ccc(F)cc1,5.84%
10,CSc1n[nH]c(-c2ccc(C(F)(F)F)cc2)n1,15.1%
11,CCN(CCn1cccn1)C(=O)c1cc(COc2ccc(F)c(F)c2)on1,-27.1%
12,CCCC(=O)c1ccc(N2CCN(C(=O)c3ccc(Br)cc3)CC2)c(F)c1,9.18%
13,Cl.O=C(CSc1nc2cc(Cl)ccc2o1)Nc1ccc(N2CCOCC2)cc1,-2.94%
14,COc1ccc(CC(=O)NC2CC2)cc1OC,15.6%
15,COC(=O)[C@H](C)NC(=O)Nc1ccc(OC(F)(F)F)cc1,17.9%
16,C1CCC(CNc2c3c(nc4nnnn24)CCCC3)CC1,9.98%
17,Cn1c(=O)c2ccccc2n(CC(=O)NC2CCCCC2)c1=O,13.3%
18,COc1cccc(NC(=O)C2CCN(c3ncccn3)CC2)c1,-1.64%
19,Cc1cccc(NC(=O)c2ccccc2NC(=O)c2ccccc2)n1,9.95%
20,COc1ccc(N2CCC(CNC(=S)Nc3c(C)cc(C)cc3C)C2)cc1 (stereo not shown),3.98%
21,CCN(CCNCC(O)COc1ccccc1C(C)C)c1cccc(C)c1.O=C(O)C(=O)O (stereo not shown),5.11%
22,CC1CCCCC1NC(=O)Cc1ccc(S(=O)(=O)N2CCOCC2)s1 (stereo not shown),-8.81%

row,SMILES,"hERG current change (%, negative = inhibition) at 1uM"
1,COc1cc(NC(=O)c2cccc(C)c2)c(OC)cc1NC(=O)CN1CCCCC1,5.58%
2,CC(=O)Nc1ccc(S(=O)(=O)Nc2ccc(S(=O)(=O)N3CCCC3)cc2)cc1,4.58%
3,CC(=O)Nc1ccc(SCC(=O)N(CCC#N)c2cc(C)cc(C)c2)cc1,4.06%
4,Cc1ccc(OCC(=O)Oc2c(C)cccc2C)cc1C,17%
5,CC(C)(C)C(=O)NC1CC2CCCC(C1)N2C(=O)Nc1ccccc1F (stereo not shown),17.7%
6,CCOC(=O)c1c(C)c(C(=O)NCc2ccccc2OC)c(C)n1C,-4.27%
7,CC(C)(C)c1cc(CN(CCO)CCO)c(O)c(C(C)(C)C)c1,-12.7%
8,CC(=O)Nc1ccc(-c2csc(NCCc3ccccc3)n2)cc1,18.4%
9,CCCCn1nc(C(=O)O)ccc1=O,18.9%
10,Cc1ccc(C(=O)OCC(=O)NCC(F)(F)F)cc1C,10.1%
11,Cl.O=C(NC1CCN(Cc2ccccc2)CC1)c1cccc(OC(F)F)c1,-45.2%
12,Cc1nn(-c2ccccc2)c(Cl)c1C(=O)N(C)c1nc(-c2ccc(F)cc2)cs1,15%
13,O=C(NC(=S)NCCCN1CCOCC1)c1ccc(Br)cc1,0.801%
14,O=C(Nc1ccc2oc(=O)ccc2c1)c1ccc(-c2ccc(Cl)cc2)o1,4.96%
15,COc1ccc(S(=O)(=O)N(CC(=O)Nc2cc(C)on2)Cc2ccccc2)cc1,15.2%
16,Cc1cc(NC(=O)C(C)C)ncc1NC(=O)CCc1ccccc1,8.95%
17,CC[C@@]12C(=O)N(c3cccc(Cl)c3)C(=O)N1[C@H](c1ccc(Br)cc1)[C@@H]1C(=O)N(C(C)(C)C)C(=O)[C@@H]12,8.52%
18,CCOc1ccccc1N1CCN(C(=O)NC(C)c2ccc(F)c(F)c2)CC1 (stereo not shown),18.9%
19,CCOC(=O)NN1C(=O)c2ccccc2NC1c1ccc(OC)cc1 (stereo not shown),13.8%
20,COc1ccccc1CNC(=O)C(C)n1cccc1C(=O)c1ccccc1 (stereo not shown),5.6%
21,COc1ccc(-n2c(C)cc(C)c(C(C)=O)c2=S)cc1,6.35%
22,COc1ccc2[nH]cc(/C=C/c3cc[n+](C)cc3)c2c1.[I-],9.56%

row,SMILES,"hERG current change (%, negative = inhibition) at 1uM"
1,CCC(=O)Nc1ccc(S(=O)(=O)Nc2c(NC)c3ccccc3oc2=O)cc1,15.1%
2,CN1C(=O)N(C)C(=O)C2(Cc3c(nc4ccccn4c3=O)N3CCc4ccccc4C32)C1=O (stereo not shown),1.97%
3,Cn1c(C(=O)N2CCCc3ccccc32)cc2sccc21,4.99%
4,COc1ccc(C[C@@H]2CN3C(=NC[C@@H]3C)N2C[C@H](C)NC(=O)CCC2CCCCC2)cc1,-20.8%
5,O=c1cc(-c2ccc(Cl)cc2)[nH][nH]1,2.37%
6,COc1ccc(OCCOC(=O)c2[nH]c(C)c(C(C)=O)c2C)cc1,8.51%
7,CC(NC(=O)COC(=O)/C=C/c1cccc(C(F)(F)F)c1)c1ccccc1 (stereo not shown),9.27%
8,O=C(Nc1sc2c(c1C(=O)O)CCCC2)c1cccc(Cl)c1,21.5%
9,COc1ccc(C(=O)Nc2nc(C)c(C(C)=O)s2)cc1S(=O)(=O)N1CCOCC1,2.17%
10,C(=N\n1cnnc1)/C1CCCCC1,10.9%
11,Cc1cc([N+](=O)[O-])nn1CC(=O)NC1CCCCC1,13.5%
12,CC1CCCCN1CCCNC(=O)c1nn(C)c2c1CS(=O)(=O)c1ccccc1-2 (stereo not shown),13.4%
13,CCCCNC(=O)CC1N=C2c3ccccc3N=C(SCC(=O)Nc3ccccc3OC)N2C1=O (stereo not shown),5.85%
14,O=C(CSc1nc2ccccc2n1CCc1ccccc1)N1CCOCC1,8.22%
15,COc1ccc(-c2cc3c(=O)n(CC(=O)NCCCN4CCC(Cc5ccccc5)CC4)ncn3n2)cc1,-6.98%
16,Cc1ccc(C(=O)CC(=O)COc2ccc(Cl)cc2C)cc1,-3%
17,CC(=O)N1CCOc2ccc(S(=O)(=O)NCC3CCC(C(=O)NCCC(C)C)CC3)cc21 (stereo not shown),12.4%
18,O=Cc1sc(Nc2ccccc2)nc1Cl,-0.131%
19,O=C(CCn1c(=O)[nH]c2ccsc2c1=O)Nc1ccc(F)c(F)c1,17.4%
20,Cc1ccccc1NC(=O)C1CCCN(S(=O)(=O)c2c(C)noc2C)C1 (stereo not shown),10.1%
21,COC(=O)C1CCN(C(=O)C2CCCCC2)CC1,4.7%
22,Cc1ccc(C(=O)NCCc2nnc3ccc(NCc4ccc5c(c4)OCO5)nn23)cc1,5.72%

row,SMILES,"hERG current change (%, negative = inhibition) at 1uM"
1,O=C(Cn1c(=O)oc2cc(S(=O)(=O)N3CCCCCC3)ccc21)NC1CCCCC1,12.6%
2,COP1(=O)C[C@@H](O)[C@@H](O)[C@@H](COCc2ccccc2)O1 (stereo partly shown),8.53%
3,O=C(CSCc1ccccc1)N1CCN(c2ccccc2)CC1,-7.13%
4,O=C(OCCOCCN=C1NS(=O)(=O)c2ccccc21)C1CC(=O)N(c2ccccc2)C1 (stereo not shown),18%
5,CCOC(=O)C1CCN(C(=O)c2ccc(Cl)c(Cl)c2)CC1,-8.87%
6,COC(=O)c1ccc(CSc2cc(C)c3cc(C)cc(C)c3n2)o1,9.76%
7,Cc1cc(C)c2c(=O)[nH]c(SCC(=O)NCCc3ccccc3)nc2n1,8.09%
8,COc1ccc(OC)c(NC(=O)COC(=O)c2c(C)noc2C)c1,13.3%
9,COc1ccc(C(=O)N/N=C(\C)c2ccc3c(c2)C2C=CCC2C(c2ccccc2)N3)cc1 (stereo not shown),7.57%
10,COc1ccc(Cl)cc1-n1c(=S)sc2c(=O)[nH]c(SCC(=O)NCC3CCCO3)nc21 (stereo not shown),16.2%
11,CC(C)[C@@H](NC(=O)C1CCC(CNC(=O)[C@H](Cc2ccccc2)NC(=O)OC(C)(C)C)CC1)C(=O)O (stereo partly shown),7.42%
12,Cc1cccc(CSCCNC(=O)c2ccc(N(C)S(=O)(=O)c3ccccc3)cc2)c1,5.86%
13,Cc1c(NS(=O)(=O)c2ccc(N3CCN(C)CC3)c([N+](=O)[O-])c2)c(=O)n(-c2ccccc2)n1C,13.6%
14,Cc1csc(CN(C)C(=O)C2CCC(=O)N(CCN(C)C)C2)n1 (stereo not shown),11.4%
15,CN(N)c1nc(-c2ccccc2)cc(-c2ccccc2)n1,22.8%
16,Cc1ccsc1/C=N/NC(=O)Cc1cc(=O)[nH][nH]1,9.54%
17,CCn1c(C)nnc1SCC(=O)NC1CCCC1,6.88%
18,COC(=O)C(O)(c1ccc(N(C)C(=O)OC(C)C)cc1)C(F)(F)F (stereo not shown),15.7%
19,COc1ccc2nc(/N=C/c3c(C)[nH]n(-c4ccc(C)cc4)c3=O)sc2c1,-31.5%
20,Cc1ccc(C)c(-c2csc(Nc3ncccn3)n2)c1,23.4%
21,CCOC(=O)c1c(NC(=O)c2cc(-c3ccc(Cl)s3)nc3ccccc23)sc(C(N)=O)c1C,14.6%
22,Cc1csc2ncc(C(=O)Nc3ccc(C(F)(F)F)cc3)c(=O)n12,16.5%
